# Reference: publication PMC4336329 (PLoS ONE, 2015)
# Hit rate of the full screen: of about 310,000 compounds, about 14,000 (4.5%) showed an effect of 50% or more. The effect is printed as a negative number. The list shows a part of the results.
# Target: human ether-à-go-go-related gene (hERG) potassium channel (human, UniProt Q12809)
# Experiment: primary screen, population patch clamp on CHO cells stably expressing hERG
# 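Note: peak tail current of the secondary pulse compared with the same well before compound.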
# human ether-à-go-go-related gene (hERG) potassium channel, sequence (Q12809 whole entry, looked up): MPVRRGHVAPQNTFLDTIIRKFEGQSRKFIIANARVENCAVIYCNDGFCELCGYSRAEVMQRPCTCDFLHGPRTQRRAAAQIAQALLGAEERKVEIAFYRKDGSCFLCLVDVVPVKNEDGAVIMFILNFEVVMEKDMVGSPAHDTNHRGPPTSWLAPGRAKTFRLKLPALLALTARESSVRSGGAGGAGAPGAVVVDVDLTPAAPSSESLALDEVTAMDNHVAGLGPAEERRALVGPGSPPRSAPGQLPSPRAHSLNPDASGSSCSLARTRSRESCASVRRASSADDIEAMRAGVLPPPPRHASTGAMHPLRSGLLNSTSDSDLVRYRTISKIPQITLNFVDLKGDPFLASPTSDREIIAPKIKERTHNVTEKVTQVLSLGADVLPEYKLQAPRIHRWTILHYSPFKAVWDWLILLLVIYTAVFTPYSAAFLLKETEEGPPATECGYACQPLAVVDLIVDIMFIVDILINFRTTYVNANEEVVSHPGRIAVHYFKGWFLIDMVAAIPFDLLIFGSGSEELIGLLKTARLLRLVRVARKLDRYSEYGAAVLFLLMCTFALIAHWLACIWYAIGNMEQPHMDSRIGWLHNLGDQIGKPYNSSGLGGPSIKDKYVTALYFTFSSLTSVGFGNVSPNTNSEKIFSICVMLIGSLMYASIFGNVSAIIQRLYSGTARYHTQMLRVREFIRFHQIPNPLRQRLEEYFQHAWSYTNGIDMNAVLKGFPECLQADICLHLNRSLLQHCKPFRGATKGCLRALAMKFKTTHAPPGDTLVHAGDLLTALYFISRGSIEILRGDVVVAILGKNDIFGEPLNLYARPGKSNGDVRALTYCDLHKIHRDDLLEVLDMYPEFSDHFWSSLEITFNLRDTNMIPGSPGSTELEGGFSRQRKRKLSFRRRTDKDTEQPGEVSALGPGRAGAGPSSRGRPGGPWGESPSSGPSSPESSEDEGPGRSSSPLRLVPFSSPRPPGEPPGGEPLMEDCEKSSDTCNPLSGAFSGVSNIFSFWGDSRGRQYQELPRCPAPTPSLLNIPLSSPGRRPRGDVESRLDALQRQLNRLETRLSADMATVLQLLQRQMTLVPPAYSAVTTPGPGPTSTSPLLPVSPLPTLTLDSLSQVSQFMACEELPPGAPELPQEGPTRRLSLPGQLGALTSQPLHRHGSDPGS
row,SMILES,"hERG current change (%, negative = inhibition) at 10uM [%]"
1,Cc1cc(NS(=O)(=O)c2c(C(=O)N3CCOCC3)c(C)n(C)c2C)ccc1Br,13.9
2,COc1ccc(Cc2nc(-c3ccccn3)no2)cc1OC,2.92
3,CCC(C)NC(=O)CCc1nnc2ccc(N3CCC(C)CC3)nn12 (centres unmarked),3.66
4,COc1ccc(C2(C(=O)NCc3ccco3)CCCC2)cc1OC,8.16
5,O=C(CSCC(=O)N1CCN(c2ccccc2)CC1)Nc1nc(-c2ccc(Cl)s2)cs1,-1.87
6,Clc1ccc(Cn2ncc3c(NCc4ccco4)ncnc32)c(Cl)c1,-12
7,COC(=O)/C(=N/Nc1ccc(C)cc1)N1CCCc2ccccc21,-1.05
8,CC(C)C(=O)Nc1ccc(N2CCN(S(C)(=O)=O)CC2)cc1,14.5
9,O=c1c2c(nc3c(-c4ccc(Cl)cc4)c[nH]n13)CCC2,22.5
10,COCCNC(=O)CSc1nc(N)c(NC(=O)c2ccccc2F)c(=O)[nH]1,8.51
11,O=S(=O)(Nc1ccc2c(c1)OCO2)c1ccc(Br)s1,-18.1
12,CC(=O)c1ccc(OCc2cc(C(=O)N3CCCCC3c3cccnc3)no2)cc1 (centres unmarked),-34.1
13,COC(=O)c1cc(S(=O)(=O)N2CCN(C(=O)c3ccco3)CC2)cn1C,11.5
14,COc1ccc(C)cc1-n1nnnc1SCc1cn2ccsc2n1,-28.7
15,N#Cc1cc(C#N)c(SCC(=O)N2CC(=O)Nc3ccccc32)nc1N,11.7
16,O=C(COc1ccccc1)NCC1(N2CCCCC2)CCCCC1,-30
17,CCCCCNc1nc(-c2ccccc2)nc(-n2ccnc2)n1,13.8
18,Cc1cccc(N(C(=O)c2snc(C(N)=O)c2N)C(C(=O)NCC2CCCO2)c2c[nH]c3ccccc23)c1 (centres unmarked),0.112
19,Cc1nn(CC(O)CN2c3ccccc3Sc3ccccc32)c(C)c1Br (centres unmarked),-2.47

row,SMILES,"hERG current change (%, negative = inhibition) at 10uM [%]"
1,COc1ccc(CCNC(=O)CSc2ccc(-c3cccs3)nn2)cc1,2.65
2,Cc1ccc(C(=O)N2CCCC2)cc1S(=O)(=O)N1CCOCC1,1.43
3,Cc1ccc(C(=O)N(CC(=O)NC2CCCC2)c2ccccc2C)s1,-1.99
4,CCCN(CCC)C(=O)CC(c1ccccc1)C1CCOC(C)(C)C1 (centres unmarked),8.4
5,CCOc1ccc(N2CC(C(=O)N3CCCC3)CC2=O)cc1 (centres unmarked),-4.65
6,Cn1cc(CCC(=O)N2CCC3(CC2)OCCO3)c2ccccc21,-10.2
7,Cc1n[nH]c(=O)c2c(NC(=O)CSc3nc4ccccc4c(=O)n3CCCO)oc(C)c12,-21.2
8,Cc1noc(/C=C/NCc2cccnc2)c1S(=O)(=O)N(C)CC(=O)N1CCc2ccccc21,3.44
9,CC(OC(=O)c1snc(C(=O)NC2CCCCC2)c1N)C(=O)NC1CCCCC1 (centres unmarked),-3.99
10,COc1ccccc1CNc1ncc(-c2ccc(F)cc2)n1C.O=C(O)C(=O)O,-62
11,CCOC(=O)CC1C(=O)NCCN1S(=O)(=O)c1ccc(Cl)c(Cl)c1 (centres unmarked),-4.31
12,O=C1NN(c2ccccc2)C(=O)/C1=C\c1ccccc1,7.94
13,CCOC(=O)c1sc2nc(NC(=O)C3CC3)sc2c1C,-12
14,COC(=O)c1c(-c2ccc(C)cc2)csc1N,-5.07
15,Cc1ccc(Cl)cc1NC(=O)CN1CCN(S(=O)(=O)N2CCC(C)CC2)CC1,-41.3
16,Cc1cccc(-c2nnc(SCC(=O)N3CCCC3)o2)c1,5.78
17,CN(C)C(=O)c1ccc2c3c(cccc13)CC2,24.6
18,COc1cc(C(=S)N2CCOCC2)ccc1OC(=O)c1cc([N+](=O)[O-])cc([N+](=O)[O-])c1,0.943
19,COc1ccccc1-c1nc(SCC(=O)N(C)c2ccccc2)c2c(=O)n(C)c(=O)n(C)c2n1,8.76

row,SMILES,"hERG current change (%, negative = inhibition) at 10uM [%]"
1,C=Cn1ccnc1P(=S)(c1ccc(N(C)C)cc1)c1nccn1C=C,3.93
2,COc1cc(/C=C/C(=O)Nc2nc3ccc(S(=O)(=O)N(C)C)cc3s2)cc(OC)c1OC,-8.72
3,Cc1ccc(NC(=O)CSCc2cc(=O)n3nc(C4CC4)sc3n2)cc1,3.11
4,O=C(CSc1ccc(Cl)cc1)N1CCN(c2ccc(Cl)cc2[N+](=O)[O-])CC1,-61.5
5,Cc1cccc(NC(=O)C2(c3ccccc3)CC2(Cl)Cl)c1 (centres unmarked),-7.73
6,OC1CCCN(Cc2cccc3ccccc23)C1 (centres unmarked),16.5
7,COCCCNC(=O)c1cc(-c2cccnc2)nc2ccc(S(=O)(=O)N3CCCCCC3)cc12,30.6
8,CC(C)CCN(C(=S)NC(=O)C1CCCCC1)c1c(N)n(Cc2ccccc2)c(=O)[nH]c1=O,37.1
9,O=C(CCc1nnc(C2(c3ccc(Cl)cc3)CCC2)o1)NC1CC1,12.8
10,C/C(=N\Nc1ccc(F)cc1F)c1ccccc1O,17
11,COCC(=O)NCc1ccc2c(c1)cc(C)n2C,4.24
12,O=C(CNC(=S)N(Cc1ccccc1)Cc1ccccc1F)NCc1ccccc1,12.3
13,CC(C)NC(=O)C1CCCN(S(=O)(=O)c2cccs2)C1 (centres unmarked),3.75
14,COC(=O)c1c(-c2ccc(Br)cc2)csc1NC(=O)Cc1ccc(OC)c(OC)c1,15.8
15,Cc1cccc(NC(=S)NNC(=O)c2cc3c(s2)CCC(C)C3)c1C (centres unmarked),-20.3
16,CN=C1CC(C)(C)CC(=O)/C1=C(/O)CCC(=O)NC,10.5
17,CC(C)=CCc1c(O)ccc(C(=O)Cc2ccccc2)c1O,-6.24
18,CCOC(=O)c1c(NC(C)=O)sc2c(OCC(O)CN(CC)CC)c(Br)ccc12 (centres unmarked),-51.3
